Experimental data as given in PubChem BioAssay AID485360 (National Center for Advancing Translational Sciences (NCATS), 2010).
Out of some 230,000 compounds screened, about 1,500 (0.65%) were called active. The shares of active, inactive and inconclusive entries below differ from those in the screen. Calls come from the whole dose curve; as a rule, active = well fitted inhibition curve with a large enough effect; inconclusive = small, poorly fitted or top-dose-only effect; inactive = no such curve, though single readings can be large or run the other way. Where the call is inconclusive, the potency comes from a doubtful curve fit.

target: Lethal(3)malignant brain tumor-like protein 1 (Homo sapiens) (UniProt Q9Y468); assay: qHTS Assay for the Inhibitors of L3MBTL1; conditions: AlphaScreen L3MBTL1–H3K9me1 peptide binding; activity, negative = inhibition: at 57.1 µM (top of the series); note: nearly all actives have a fitted effect of over 60% in size
Sequence of UniProt Q9Y468 (Q9Y468 whole entry, looked up): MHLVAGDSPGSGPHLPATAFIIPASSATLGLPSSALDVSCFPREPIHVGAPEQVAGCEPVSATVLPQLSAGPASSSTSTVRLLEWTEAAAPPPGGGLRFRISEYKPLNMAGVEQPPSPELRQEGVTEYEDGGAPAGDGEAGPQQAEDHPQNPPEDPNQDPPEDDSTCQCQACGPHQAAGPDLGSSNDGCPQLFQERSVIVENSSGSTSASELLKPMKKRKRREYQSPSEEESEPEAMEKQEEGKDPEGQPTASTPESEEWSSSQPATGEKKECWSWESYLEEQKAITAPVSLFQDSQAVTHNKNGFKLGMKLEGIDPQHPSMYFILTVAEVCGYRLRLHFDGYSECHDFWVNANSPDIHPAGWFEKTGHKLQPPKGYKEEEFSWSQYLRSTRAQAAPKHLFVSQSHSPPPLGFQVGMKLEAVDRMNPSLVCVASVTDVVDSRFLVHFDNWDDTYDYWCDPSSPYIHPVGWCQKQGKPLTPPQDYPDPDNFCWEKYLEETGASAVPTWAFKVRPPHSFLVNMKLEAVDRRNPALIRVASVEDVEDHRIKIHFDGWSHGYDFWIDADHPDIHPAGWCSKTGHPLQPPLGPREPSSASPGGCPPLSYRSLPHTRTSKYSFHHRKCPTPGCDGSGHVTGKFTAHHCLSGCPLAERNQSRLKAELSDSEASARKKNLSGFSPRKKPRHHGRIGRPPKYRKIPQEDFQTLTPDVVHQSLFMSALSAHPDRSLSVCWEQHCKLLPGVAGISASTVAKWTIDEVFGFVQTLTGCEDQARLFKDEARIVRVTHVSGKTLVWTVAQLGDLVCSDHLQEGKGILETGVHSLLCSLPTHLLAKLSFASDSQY
In short: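 AlphaScreen proximity signal between nickel-chelate acceptor and streptavidin donor beads (final 10 ug/mL) reports binding of 50 nM L3MBTL1 to 75 nM biotin-H3 K9me1 peptide; complex incubated with compounds 30 min at room temperature; cefsulodin titration as control.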
% is set by controls: 0 for no effect and ±100 for the full control effect; potency is the fitted concentration of half-maximal effect; tags give direction and shape of the fitted curve.

Row | SMILES | Potency | activity, negative = inhibition
1 | Cc1c(Cl)cccc1NCC(=O)NN=C1CCCC1 | inconclusive: 0.631 µM [inhibitor, full curve, poor fit] | –
2 | CN(C)CCN1C(=O)C(=O)/C(=C(/O)c2ccc(S(=O)(=O)N3CCOCC3)cc2)C1c1ccccc1 (configuration not stated) | inactive | –
3 | COc1ccc(Nc2nnc(-c3ccc(O)cc3)c3ccccc23)cc1C(N)=O | inactive | –
4 | O=C(NC(=S)NCCN1CCOCC1)c1ccccc1Cl | inactive | –
5 | Cc1cccn2c(CN3CCCN(C=O)CC3)c(C(=O)N(C)CCc3ccccc3)nc12 | inconclusive: 0.141 µM [inhibitor, full curve, poor fit] | –
6 | O=C(CN1C(=O)/C(=C2/SC(=S)N(CCS(=O)(=O)O)C2=O)c2ccccc21)Nc1cccc(C(F)(F)F)c1 | inconclusive: 39.8 µM [inhibitor, single point] | –
7 | COC(=O)[C@@H](N)Cc1ccc(O)c(O)c1 | inactive | –
8 | CN(CC(=O)Nc1ccccc1Br)CC(=O)NC(c1ccccc1)c1ccccc1 | inactive | –
9 | CCOC(=O)N1CCC(NC(=O)c2cc(C(=O)Nc3ccc(OC)c(OC)c3)ccc2CO)CC1 | inconclusive: 17.8 µM [inhibitor, partial curve] | –
10 | COc1ccc(/C(C)=N/NC(=O)Cn2nc([N+](=O)[O-])cc2C)cc1 | inactive | –
11 | O=C(CCC(=O)N1CCN(c2ccc(O)cc2)CC1)c1cccs1 | inconclusive: 28.2 µM [inhibitor, single point] | –
12 | CC1=C(OC(=O)C(C)(C)C)C(C)(C)C(c2ccccc2)OC1=O (configuration not stated) | inconclusive: 0.708 µM [inhibitor, single point] | –
13 | C/C(=N\NC(=S)Nc1ccc(C)cc1)c1cc2ccccc2o1 | inconclusive: 44.7 µM [inhibitor, single point] | –
14 | CS(=O)(=O)N1CCC(C(=O)N2CCC(Cc3ccccc3)CC2)CC1 | inconclusive: 3.98 µM [inhibitor, single point] | –
15 | Cc1c(C(=O)O)cccc1-n1c(C)cc(/C=C(/C#N)C(=O)NCc2ccccc2)c1C | inconclusive: 0.126 µM [inhibitor, full curve, poor fit] | –
16 | CCOC(=O)NNc1cc(C(F)(F)F)ccn1 | inconclusive: 5.01 µM [inhibitor, single point] | –
17 | Cc1ccc(C)c(/C=C(\C(=O)O)c2ccc(S(=O)(=O)N3CCCCC3)s2)c1 | inconclusive: 28.2 µM [inhibitor, single point] | –
18 | O=C(c1cn(Cc2ccccc2)nc1-c1cccnc1)N1CCN(Cc2c(F)cccc2Cl)CC1 | inconclusive: 0.794 µM [inhibitor, single point] | –
19 | O=C(O)c1cc(Cl)c2c(c1)[C@@H]1C=CC[C@@H]1[C@H](c1ccc(S(=O)(=O)N3CCOCC3)cc1)N2 | active: 22.4 µM | –
20 | Nc1c(Cl)ncnc1N/N=C/c1ccncc1 | inactive | –
21 | O=S(=O)(c1ccc(-c2csc(=Nc3ccccc3)n2CCCN2CCOCC2)cc1)N1CCOCC1 | inactive | –
22 | CCOc1ccc(Cl)cc1/C=N/NC(=O)c1ccccc1 | inactive | –
23 | C=C(C)c1cccc(C(C)(C)NC(=O)Nc2ccc(C)cn2)c1 | inconclusive: 0.708 µM [inhibitor, single point] | –
24 | C/C(=N\NC(=S)NCCc1ccccc1)c1cccs1 | inconclusive: 28.2 µM [inhibitor, partial curve] | –

Row | SMILES | Potency | activity, negative = inhibition
25 | COc1ccccc1N1CCN(/N=C/C=C\c2ccccc2[N+](=O)[O-])CC1 | inconclusive: 4.47 µM [inhibitor, partial curve] | –
26 | COCCCn1c(Cc2csc(Nc3cccc(Cl)c3)n2)nnc1SCC(=O)OC1CCCCC1 | inconclusive: 28.2 µM [inhibitor, single point] | –
27 | O=[N+]([O-])c1ccccc1NCc1ccccc1Cl | inconclusive: 0.501 µM [inhibitor, partial curve] | –
28 | CNc1nc(C(=O)O)nc(N2CCOCC2)n1 | active: 20 µM | –
29 | O=C(Nc1ccc2c(c1)OCCO2)c1cncc(Br)c1 | inconclusive: 0.708 µM [inhibitor, single point] | –
30 | CN1/C(=C\C(=O)COC(=O)c2ccc([N+](=O)[O-])o2)C(C)(C)c2ccccc21 | inconclusive: 1.58 µM [inhibitor, partial curve] | –
31 | CCN(CC(=O)Nc1ccc(NC(C)=O)cc1)C(=O)CSc1ncnc2sc(C)c(C)c12 | inactive | –
32 | O=[N+]([O-])c1ccc(/C=C/C2=NN(c3ccccc3)C(c3ccco3)C2)o1 (configuration not stated) | inconclusive: 39.8 µM [inhibitor, single point] | –
33 | CC(C)(C)CC(C)(C)NCC(=O)Nc1c2c(nc3ccccc13)CCC2 | inconclusive: 44.7 µM [inhibitor, partial curve, poor fit] | –
34 | O=C(NC(=S)N(CC1CCC1)CC1CCCO1)c1cccc([N+](=O)[O-])c1 (configuration not stated) | inconclusive: 25.1 µM [inhibitor, single point] | –
35 | CCOC(=O)c1nc(S(C)(=O)=O)ncc1N1CCOCC1 | inconclusive: 35.5 µM [inhibitor, single point] | –
36 | Cn1nnc(NC(=O)CSc2ccc(Cl)cc2)n1 | inconclusive: 6.31 µM [inhibitor, single point] | –
37 | CC(CN1CCOCC1)OC(=O)Cc1ccc(Cl)cc1 (configuration not stated) | inconclusive: 0.708 µM [inhibitor, full curve, poor fit] | –
38 | O=C(O)c1cc(O)c2c(c1)C(=O)c1cc(O)cc(O)c1C2=O | active: 2.51 µM | –
39 | COc1cc2nc(=S)n3[nH]c(COc4ccccc4C)nc3c2cc1OC | inactive | –
40 | CSc1ccccc1C(=O)N1CCCCC1 | – | inactive: -3.18% [at 2.29 µM]
41 | O=C(O)C1OC(Oc2cc3oc(-c4ccccc4)cc(=O)c3c(O)c2O)C(O)C(O)C1O (configuration not stated) | – | inconclusive: -96% [inhibitor]
42 | COc1ccc(-c2c(N)n[nH]c2C)cc1OC | inactive | –
43 | COC(=O)CSc1nc(N)c2c3c(sc2n1)CCCC3 | inactive | –
44 | S=c1[nH]nc(-c2ccc3ccccc3n2)n1-c1cc(Cl)cc(Cl)c1 | inactive | –
45 | COc1ccc(/C=C/C(=O)c2ccccc2)cc1COc1ccccc1F | inactive | –
46 | COc1ccc(/C=C2\CCc3c2nc2ccccc2c3C(=O)O)cc1OC | inconclusive: 39.8 µM [inhibitor, single point] | –
47 | CC(=O)Nc1cccc(OCC(=O)Nc2sccc2C(N)=O)c1 | inconclusive: 17.8 µM [inhibitor, partial curve] | –
48 | CSc1ccc(/C=N/NC(=O)CN2CCN(Cc3ccccc3)CC2)cc1 | inconclusive: 0.794 µM [inhibitor, single point] | –

Row | SMILES | Potency | activity, negative = inhibition
49 | Cc1ccc(-c2c(C(=O)O)c(C(=O)O)c3n2CCC3)cc1 | inactive | –
50 | N#Cc1c(Nc2cccc(F)c2)sc2c(O)cc(=O)[nH]c12 | inconclusive: 28.2 µM [inhibitor, single point] | –
51 | C=CCOc1c(CNc2nccs2)cccc1OCC | inconclusive: 4.47 µM [inhibitor, single point] | –
52 | CCN1CCN(C(=O)c2cc(-c3ccco3)nc3ccccc23)CC1 | inconclusive: 25.1 µM [inhibitor, single point] | –
53 | CCCc1cc(=O)[nH]c(SCC(=O)Nc2cc(S(=O)(=O)N(CC)c3ccccc3)ccc2Cl)n1 | inactive | –
54 | CCCCS/C(=C(/C#N)C(N)=O)c1cc2c([nH]1)CCCC2 | inconclusive: 31.6 µM [inhibitor, partial curve, poor fit] | –
55 | COc1cccc(C(=O)N2CCOCC2)c1 | inconclusive: 10 µM [inhibitor, partial curve, poor fit] | –
56 | CCCCN(C)C(=O)c1ccc2c(c1)N(CC)C(=O)c1ccccc1S2(=O)=O | inconclusive: 39.8 µM [inhibitor, single point] | –
57 | Clc1cccc(Cl)c1C1Nc2cccc3cccc(c23)N1 | active: 14.1 µM | –
58 | CC(NC(=O)c1cccs1)C(c1cccs1)N1CCOCC1 (configuration not stated) | inconclusive: 3.98 µM [inhibitor, single point] | –
59 | Cc1c(Cc2ccccc2)c(=O)oc2c(O)c(O)ccc12 | inactive | –
60 | COc1cccc(/C=N/Nc2nccnc2Cl)c1O | inconclusive: 25.1 µM [inhibitor, single point] | –
61 | O=C1C(Nc2cccc(O)c2)=C(N2CCCCC2)C(=O)c2ccccc21 | inconclusive: 31.6 µM [inhibitor, single point] | –
62 | COc1ccccc1C(=O)NNC(=O)C(=O)NC(C)C | inconclusive: 39.8 µM [inhibitor, single point] | –
63 | CC(C)C(c1nnnn1Cc1ccc(F)cc1)N1CCN(c2ccc(O)cc2)CC1 (configuration not stated) | inactive | –
64 | CCOC(=O)c1ccc(NCc2ccc(N(C)C)cc2)cc1 | inconclusive: 31.6 µM [inhibitor, single point] | –
65 | N#Cc1cnc(NN)nc1 | inconclusive: 8.91 µM [inhibitor, partial curve] | –
66 | COc1ccc(S(=O)(=O)Cc2ccc(C(=O)N3CCN(c4cccc(C)c4C)CC3)o2)cc1 | inconclusive: 31.6 µM [inhibitor, single point] | –
67 | CN1CCN(c2cc(=O)n(C3CCCCC3)c(=O)[nH]2)CC1 | inactive | –
68 | CCCCC(=O)Nc1cccc(-c2nn3c(C)nnc3s2)c1 | inconclusive: 2.82 µM [inhibitor, single point] | –
69 | CCCCn1c(N)c(N(CC(C)C)C(=O)c2ccc(-c3ccc(Cl)cc3)o2)c(=O)[nH]c1=O | inactive | –
70 | CCC(C)Nc1ccc(NC(C)CC)cc1 (configuration not stated) | inconclusive: 39.8 µM [inhibitor, single point] | –
71 | C/C(N)=C(/C#N)C(=O)COC(=O)c1ccc(C#N)cc1 | inconclusive: 39.8 µM [inhibitor, single point] | –
72 | CCOC(=O)c1cc(-c2ccccc2)sc1NC(=O)CCN1C(=O)c2ccccc2C1=O | inactive | –
